This passage reports binding results from article PMC8529494.

Sequences of proteins named here, by UniProt entry; tags and fusion partners are left off. A change or cut given only in a name is not applied to a line headed by its entry. A line that says so, or that is headed by a name, gives the form on record, which may keep a tag or linker.
UniProt Q92794: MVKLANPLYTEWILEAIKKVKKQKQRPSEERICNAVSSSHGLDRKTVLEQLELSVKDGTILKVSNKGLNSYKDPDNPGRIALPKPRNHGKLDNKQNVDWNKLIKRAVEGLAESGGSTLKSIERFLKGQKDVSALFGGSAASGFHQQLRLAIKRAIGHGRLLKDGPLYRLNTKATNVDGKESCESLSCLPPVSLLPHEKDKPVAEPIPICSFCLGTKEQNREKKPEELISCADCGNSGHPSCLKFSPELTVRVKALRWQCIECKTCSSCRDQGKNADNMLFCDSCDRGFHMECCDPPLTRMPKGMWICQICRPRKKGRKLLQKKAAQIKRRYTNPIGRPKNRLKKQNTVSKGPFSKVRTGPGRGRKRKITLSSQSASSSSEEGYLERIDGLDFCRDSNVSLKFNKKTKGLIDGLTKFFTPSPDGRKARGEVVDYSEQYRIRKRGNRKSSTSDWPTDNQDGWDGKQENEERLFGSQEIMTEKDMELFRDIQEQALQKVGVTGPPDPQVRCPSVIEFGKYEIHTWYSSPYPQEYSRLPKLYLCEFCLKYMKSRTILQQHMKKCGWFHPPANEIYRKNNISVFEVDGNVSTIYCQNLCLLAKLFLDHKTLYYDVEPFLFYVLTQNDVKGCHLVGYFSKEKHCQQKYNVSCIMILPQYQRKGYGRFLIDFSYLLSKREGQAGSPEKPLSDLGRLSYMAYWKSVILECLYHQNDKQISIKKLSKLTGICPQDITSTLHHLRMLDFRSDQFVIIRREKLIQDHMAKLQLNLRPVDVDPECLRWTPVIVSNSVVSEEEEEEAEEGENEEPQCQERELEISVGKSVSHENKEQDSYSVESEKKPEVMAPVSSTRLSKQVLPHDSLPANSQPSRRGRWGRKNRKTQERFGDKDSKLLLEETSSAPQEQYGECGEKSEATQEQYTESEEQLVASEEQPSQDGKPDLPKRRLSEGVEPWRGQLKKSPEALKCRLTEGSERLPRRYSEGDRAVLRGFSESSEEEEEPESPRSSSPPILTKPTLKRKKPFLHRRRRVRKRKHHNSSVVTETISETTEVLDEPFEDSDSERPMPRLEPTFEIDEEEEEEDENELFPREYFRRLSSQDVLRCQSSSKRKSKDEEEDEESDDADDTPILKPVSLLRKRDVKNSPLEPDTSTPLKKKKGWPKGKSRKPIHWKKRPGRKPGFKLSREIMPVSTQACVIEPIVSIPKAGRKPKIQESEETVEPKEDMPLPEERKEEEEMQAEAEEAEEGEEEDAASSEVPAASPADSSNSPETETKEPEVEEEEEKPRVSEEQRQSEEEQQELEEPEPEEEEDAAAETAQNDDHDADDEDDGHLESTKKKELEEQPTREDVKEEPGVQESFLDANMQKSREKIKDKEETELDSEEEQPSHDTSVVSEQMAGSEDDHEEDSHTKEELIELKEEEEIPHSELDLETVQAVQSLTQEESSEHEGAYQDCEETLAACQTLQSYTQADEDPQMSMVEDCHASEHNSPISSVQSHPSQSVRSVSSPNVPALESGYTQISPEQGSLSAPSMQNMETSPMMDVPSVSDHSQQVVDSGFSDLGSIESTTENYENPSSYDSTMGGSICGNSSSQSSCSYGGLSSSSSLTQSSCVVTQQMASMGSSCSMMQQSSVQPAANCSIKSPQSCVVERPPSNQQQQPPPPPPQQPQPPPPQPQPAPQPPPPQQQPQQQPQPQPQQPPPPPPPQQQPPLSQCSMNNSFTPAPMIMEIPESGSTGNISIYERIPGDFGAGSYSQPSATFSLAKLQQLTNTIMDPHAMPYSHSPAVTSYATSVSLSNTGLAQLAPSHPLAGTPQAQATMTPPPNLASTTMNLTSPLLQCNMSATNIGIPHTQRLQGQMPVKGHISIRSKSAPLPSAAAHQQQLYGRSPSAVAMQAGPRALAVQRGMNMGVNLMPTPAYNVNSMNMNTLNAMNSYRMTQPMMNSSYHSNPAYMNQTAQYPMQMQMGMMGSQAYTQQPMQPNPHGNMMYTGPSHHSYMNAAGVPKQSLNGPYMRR
UniProt P84022: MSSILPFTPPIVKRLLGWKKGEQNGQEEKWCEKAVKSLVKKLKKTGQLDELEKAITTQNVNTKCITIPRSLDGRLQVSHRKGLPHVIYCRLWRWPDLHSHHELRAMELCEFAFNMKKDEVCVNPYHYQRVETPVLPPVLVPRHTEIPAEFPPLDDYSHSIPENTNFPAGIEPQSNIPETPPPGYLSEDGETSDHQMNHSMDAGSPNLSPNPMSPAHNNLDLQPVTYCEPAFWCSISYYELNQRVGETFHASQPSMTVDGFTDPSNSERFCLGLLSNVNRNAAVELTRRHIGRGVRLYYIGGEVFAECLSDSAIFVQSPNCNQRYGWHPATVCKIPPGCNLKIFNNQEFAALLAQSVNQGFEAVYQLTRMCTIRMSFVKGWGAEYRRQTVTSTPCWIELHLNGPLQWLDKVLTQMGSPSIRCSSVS
SMAD3 K20/117Q, acetylation-mimetic mutant, in HEK293T cells (P84022, form named): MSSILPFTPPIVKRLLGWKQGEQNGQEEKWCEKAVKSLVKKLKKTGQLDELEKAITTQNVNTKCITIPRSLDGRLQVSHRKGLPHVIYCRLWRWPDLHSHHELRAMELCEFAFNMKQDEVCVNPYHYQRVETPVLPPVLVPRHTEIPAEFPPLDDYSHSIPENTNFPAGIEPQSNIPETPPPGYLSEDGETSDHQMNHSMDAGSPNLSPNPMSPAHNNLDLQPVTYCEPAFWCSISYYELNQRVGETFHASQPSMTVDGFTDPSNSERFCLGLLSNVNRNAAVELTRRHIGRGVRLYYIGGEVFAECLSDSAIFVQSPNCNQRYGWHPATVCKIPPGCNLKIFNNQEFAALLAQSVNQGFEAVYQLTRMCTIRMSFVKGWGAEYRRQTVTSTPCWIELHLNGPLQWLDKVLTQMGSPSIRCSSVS
SMAD3 K20/117R, acetylation-deficient mutant, in HEK293T cells (P84022, form named): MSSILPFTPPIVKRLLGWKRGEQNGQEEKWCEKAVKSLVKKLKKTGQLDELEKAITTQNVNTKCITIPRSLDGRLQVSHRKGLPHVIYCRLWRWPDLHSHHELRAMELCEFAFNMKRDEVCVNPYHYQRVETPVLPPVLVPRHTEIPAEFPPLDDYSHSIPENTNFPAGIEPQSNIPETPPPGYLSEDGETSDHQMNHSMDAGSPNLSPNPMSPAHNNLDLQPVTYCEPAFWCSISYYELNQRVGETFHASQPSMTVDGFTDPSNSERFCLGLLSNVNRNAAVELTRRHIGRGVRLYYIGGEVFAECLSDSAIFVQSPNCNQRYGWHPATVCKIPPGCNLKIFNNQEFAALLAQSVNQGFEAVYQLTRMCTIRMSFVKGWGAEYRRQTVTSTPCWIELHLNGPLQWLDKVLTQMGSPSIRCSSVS

Results are given in words; binding and its absence hold for the method and conditions named. Binding seen in cells or lysates may run through a third protein. Some entries that bind do so weakly or less than the wild type.

Assay [1] concerns the target KAT6A, exogenous, in HEK293T cells (UniProt Q92794). The assay can be described thus: co-IP; IP and western blot of HEK293T cells coexpressing KAT6A and SMAD3 WT or mutants (Figure 2B, F, M). A general note: In western blotting, separated proteins are transferred to a membrane and probed.
The target of a further assay is GST-KAT6A (UniProt Q92794). Briefly: pull-down; purified GST-KAT6A or GST incubated with cell extracts from MDA-MB-231 cells stimulated with or without TGF-β1 (5 ng/mL, 2 h); only the target purified.
Assay [2] deals with KAT6A, endogenous (human (endogenous in MDA-MB-231)) (UniProt Q92794). The assay can be described thus: co-IP; endogenous KAT6A and SMAD3 in MDA-MB-231 cells (Figure 2C).

Turning to “SMAD3 K20/117Q, acetylation-mimetic mutant, in HEK293T cells (from UniProt P84022 1-425)”, the binding result in assay [1] was “binds”.

On to “SMAD3 K20/117R, acetylation-deficient mutant, in HEK293T cells (from UniProt P84022 1-425)”, for which the binding entry in assay [1] is listed as “binds”.

Turning to “SMAD3 wild type, exogenous, in HEK293T cells (from UniProt P84022 1-425)”, the binding result in assay [1] is “binds”. Regarding “SMAD3, endogenous (from UniProt P84022 1-425)”, the binding entry (with GST-KAT6A; in assay [2]) was “binds” throughout.
